Structures are written as SMILES. Screen size: about 39,000 compounds; about 220 (0.56%) showed activity. The list shows a part of the results.
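Also: static incubation at 37 °C against the wild-type strain, values averaged over two biological replicates.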

This experiment deals with Escherichia coli K-12 BW25113. The experiment can be described thus: relative growth (OD600 normalised to plate interquartile mean) (fraction); higher = less growth inhibition, active = 0.2 or less. The following applies: 50 µM; LB; incubation time: overnight (16-24 h).
As to `Nc1ccn([C@@H]2O[C@H](CO)[C@@H](O)[C@H]2O)c(=O)n1`, the relative growth is inactive: 0.996.
The same measure for `COc1ccc(S(=O)(=O)Nc2ccc3c(c2)C(=O)N([C@H](C)CO)C[C@@H](C)[C@H](CN(C)Cc2ccc(Oc4ccccc4)cc2)O3)cc1`: inactive: 1.05; for `O=C(CN1CCNCC1)N1CCCC1`: inactive: 1.
The same measure for `C[C@@H]1CN([C@H](C)CO)C(=O)c2cc(NC(=O)C3CCCCC3)ccc2O[C@H]1CN(C)Cc1ccc(Oc2ccccc2)cc1`: inactive: 0.979; for `Cc1cccc(-n2cc(CN)cn2)c1`: inactive: 0.955.
The same measure for `Nc1ncnc2c1nc(Br)n2[C@H]1O[C@H]2COP(=O)(O)O[C@@H]2[C@@H]1O`: inactive: 0.988.
Consider `CC(C)(C)[S@@](=O)N1Cc2cc(C(=O)N3CCCCC3)nc(-c3cccc(-c4ccc(C#N)cc4)c3)c2[C@H]1CCO`, for which the relative growth was inactive: 1.02.
Turning to `C[C@@H]1CCCCO[C@@H](CN(C)Cc2ccc(C(=O)O)cc2)[C@H](C)CN([C@H](C)CO)C(=O)c2cc(NC(=O)CCC(F)(F)F)ccc2O1`, the relative growth was inactive: 0.982.
As for `O=C(COP(=O)(O)O)[C@@H](O)[C@H](O)[C@H](O)COP(=O)(O)O`, the relative growth is inactive: 0.987.
Turning to `CSc1nc(-c2ccccc2)cc(-c2cccs2)c1C#N`, the relative growth is inactive: 1.03.
The same measure for `CC(C)C[C@@H](N)C(=O)N[C@H]1C(=O)N[C@@H](CC(N)=O)C(=O)N[C@H]2C(=O)N[C@H]3C(=O)N[C@H](C(=O)N[C@H](C(=O)O)c4cc(O)cc(O)c4-c4cc3ccc4O)[C@H](O)c3ccc(c(Cl)c3)Oc3cc2cc(c3O[C@@H]2O[C@H](CO)[C@@H](O)[C@H](O)[C@H]2O[C@H]2C[C@](C)(N)[C@H](O)[C@H](C)O2)Oc2ccc(cc2Cl)[C@H]1O`: inactive: 0.954.
Regarding `Cc1noc(C)c1S(=O)(=O)Nc1ccc2c(c1)C(=O)N([C@H](C)CO)C[C@@H](C)[C@H](CN(C)Cc1ccccc1)OCCCC[C@@H](C)O2`, the relative growth was inactive: 1.02.
For `COCC(=O)N1CC(=O)N2[C@@H](CO)[C@@H](c3ccc(C#Cc4cccnc4)cc3)[C@@H]2C1`, the relative growth was inactive: 0.962.
The same measure for `C[C@H]1CN([C@@H](C)CO)C(=O)c2cc(C3=CCCCC3)cnc2O[C@H]1CN(C)C(=O)CN1CCOCC1`: inactive: 0.969; for `C[C@@H]1CCCCO[C@@H](CN(C)C(=O)C2CCCCC2)[C@@H](C)CN([C@H](C)CO)C(=O)c2cc(NC(=O)c3ccncc3)ccc2O1`: inactive: 1; for `COCC(=O)N1[C@@H]2c3ccc(C4=CCCC4)c(=O)n3C[C@@H]2[C@@H](CO)[C@@H]1C(=O)N1CCN(C)CC1`: inactive: 1.
In the case of `CC12CCC(=O)C=C1CCC1C2CCC2(C)C1CCC2(O)C(=O)CO` (centres undefined), the relative growth was inactive: 1.14.
The same measure for `C[C@H](CO)N1C[C@H](C)[C@H](CN(C)Cc2ccc(-c3ccccc3)cc2)Oc2c(NS(=O)(=O)c3ccccc3)cccc2C1=O`: inactive: 0.977.
The same measure for `C[C@H]1CN([C@@H](C)CO)C(=O)Cc2cc(NC(=O)CCC(F)(F)F)ccc2O[C@H]1CN(C)Cc1ccc(C(F)(F)F)cc1`: inactive: 1.03.
The same measure for `CCN1CC[C@]2(CN(S(C)(=O)=O)CC23CCN(Cc2cnn(C)c2)CC3)C1=O`: inactive: 1.01; for `CO[C@H]1CN(C)C(=O)c2ccc(NC(=O)C3CC3)cc2OC[C@H](C)N(C(=O)CN2CCOCC2)C[C@@H]1C`: inactive: 1.01.
In the case of `C[C@@H]1CN([C@H](C)CO)C(=O)c2cc(NS(C)(=O)=O)ccc2O[C@@H](C)CCCCO[C@@H]1CN(C)Cc1ccncc1`, the relative growth is inactive: 0.991.
Turning to `C[C@H](CO)N1C[C@H](C)[C@@H](CN(C)C(=O)Nc2ccc(C(F)(F)F)cc2)Oc2ccc(NC(=O)NC3CCCCC3)cc2CC1=O`, the relative growth was inactive: 1.01.
Consider `COc1ccc(S(=O)(=O)N(C)C[C@@H]2OCCCC[C@@H](C)Oc3ccc(NC(=O)Nc4c(C)noc4C)cc3C(=O)N([C@H](C)CO)C[C@H]2C)cc1`, for which the relative growth was inactive: 1.01.
`CN1CC(=O)N(c2cnn(C)c2)C[C@]12CCN(C(=O)c1cnccn1)C2`: the relative growth is inactive: 1.
As to `COCC(=O)N1C[C@@H](C)[C@@H](OC)CN(C)C(=O)c2ccc(NC(=O)Nc3cccc(F)c3)cc2OC[C@@H]1C`, the relative growth is inactive: 0.997.
The same measure for `COc1ccc(CN(C)C[C@H]2OCCCC[C@H](C)Oc3ccc(NC(=O)Nc4ccc5c(c4)OCO5)cc3C(=O)N([C@@H](C)CO)C[C@@H]2C)cc1`: inactive: 0.999; for `Cc1noc(C)c1NC(=O)Nc1ccc2c(c1)C(=O)N([C@@H](C)CO)C[C@@H](C)[C@@H](CN(C)S(=O)(=O)c1ccccc1)OCCCC[C@@H](C)O2`: inactive: 1; for `C[C@@H]1CN([C@H](C)CO)C(=O)c2cc(NS(=O)(=O)c3ccc(Cl)cc3)ccc2O[C@H]1CN(C)S(C)(=O)=O`: inactive: 1.
`C[C@H]1CN([C@@H](C)CO)C(=O)c2cccc(NS(=O)(=O)c3cccs3)c2O[C@@H]1CN(C)Cc1ccc(Cl)c(Cl)c1`: the relative growth is inactive: 1.02.
The same measure for `C[C@H]1CCCCO[C@H](CN(C)S(=O)(=O)c2cccs2)[C@@H](C)CN([C@@H](C)CO)C(=O)c2cc(NC(=O)C3CCCCC3)ccc2O1`: inactive: 0.995.
As to `COc1ccc(S(=O)(=O)N(C)C[C@H]2Oc3ccc(NC(=O)C4CC4)cc3CC(=O)N([C@H](C)CO)C[C@@H]2C)cc1`, the relative growth was inactive: 0.993.
In the case of `COc1ccc(CN(C)C[C@H]2OCCCC[C@@H](C)Oc3ccc(NC(=O)NC(C)C)cc3C(=O)N([C@@H](C)CO)C[C@@H]2C)cc1`, the relative growth was inactive: 1.02.
As for `C[C@H](O)C#Cc1ccc2c(c1)O[C@@H](CN(C)C(=O)C1CCCCC1)[C@@H](C)CN([C@H](C)CO)S2(=O)=O`, the relative growth was inactive: 0.999.
On to `CN(C)CCCNC(=O)C[C@@H]1CC[C@H]2[C@@H](COc3ccc(NC(=O)c4cccc(F)c4)cc3C(=O)N2C)O1`, for which the relative growth was inactive: 1.
The same measure for `COCC(=O)Nc1ccc2c(c1)OC[C@H](C)N(C(=O)c1ccccc1F)C[C@@H](C)[C@H](OC)CN(C)C2=O`: inactive: 1.01; for `CN(C)C(=O)c1cccc(-c2cccc(-c3nc(C(=O)NC4CCCCC4)cc4c3[C@H](CCO)N([S@@](=O)C(C)(C)C)C4)c2)c1`: inactive: 0.988.
The same measure for `COc1ccc(NC(=O)Nc2ccc3c(c2)C(=O)N([C@@H](C)CO)C[C@H](C)[C@H](CN(C)C(=O)C2CCCCC2)OCCCC[C@H](C)O3)cc1`: inactive: 1.01; for `C[C@@H]1CN([C@H](C)CO)C(=O)c2cc(-c3cccc(C#N)c3)cnc2O[C@H]1CN(C)C(=O)c1cnccn1`: inactive: 0.994; for `Cc1ccc(S(=O)(=O)N(C)C[C@H]2Oc3ccc(NC(=O)C4CC4)cc3C(=O)N([C@@H](C)CO)C[C@@H]2C)cc1`: inactive: 1.
The same measure for `C[C@@H]1CN([C@@H](C)CO)C(=O)c2cc(NC(=O)Nc3ccc(C(F)(F)F)cc3)ccc2O[C@H]1CN(C)Cc1ccc(Oc2ccccc2)cc1`: inactive: 1.02; for `C[C@@H]1CCCCO[C@@H](CN(C)C(=O)c2ccccc2)[C@H](C)CN([C@H](C)CO)C(=O)c2cc(NS(=O)(=O)c3ccccc3)ccc2O1`: inactive: 1.01; for `COc1ccc(S(=O)(=O)Nc2cccc3c2O[C@H](CN(C)Cc2ccc(Cl)c(Cl)c2)[C@@H](C)CN([C@@H](C)CO)C3=O)cc1`: inactive: 1.01.
On to `COc1ccc(S(=O)(=O)Nc2ccc3c(c2)C(=O)N([C@H](C)CO)C[C@@H](C)[C@H](CN(C)S(=O)(=O)c2ccc(Cl)cc2)OCCCC[C@@H](C)O3)cc1`, for which the relative growth was inactive: 1.02.
In the case of `CCn1nnc2c1CCN(S(=O)(=O)c1cn(C)cn1)[C@@H]2COC`, the relative growth is inactive: 1.
The same measure for `C[C@H](CO)N1C[C@H](C)[C@@H](CN(C)Cc2ccc(C(=O)Nc3ccccc3N)cc2)Oc2c(NC(=O)Nc3ccc(C(F)(F)F)cc3)cccc2C1=O`: inactive: 0.996; for `OC1C(O)C(O)C(O)C(O)C1O` (centres undefined): inactive: 1.1.
Consider `CN1C[C@]2(CCN(C(=O)c3cn(CCN4CCNCC4)nn3)C2)OC1=O`, for which the relative growth was inactive: 0.973.
The same measure for `CC(=O)CC(=O)O`: inactive: 1; for `C[C@@H]1CCCCO[C@H](CN(C)C(=O)Nc2cccc3ccccc23)[C@@H](C)CN([C@H](C)CO)C(=O)c2cc(NC(=O)c3ccccc3)ccc2O1`: inactive: 1.06.
For the compound `CC(C)(C)OC(=O)CC[C@]12N=C(c3ccc(OCCCO)cc3)O[C@H]1c1ccccc1CN(C(=O)c1ccccc1)C2=O`, the relative growth was inactive: 1.06.
The same measure for `C[C@@H]1CN([C@@H](C)CO)C(=O)Cc2cc(NC(=O)CCN3CCOCC3)ccc2O[C@@H]1CN(C)Cc1ccc2c(c1)OCO2`: inactive: 1.02; for `C[C@@H]1CCCCO[C@H](CN(C)Cc2ccc(C(F)(F)F)cc2)[C@H](C)CN([C@@H](C)CO)C(=O)c2cc(NC(=O)Nc3ccc4c(c3)OCO4)ccc2O1`: inactive: 0.994.
Take `COc1ccc(S(=O)(=O)N(C)C[C@H]2Oc3c(NC(=O)NC(C)C)cccc3C(=O)N([C@H](C)CO)C[C@H]2C)cc1`: the relative growth is inactive: 1.01.
Take `C[C@@H]1CCCCO[C@@H](CN(C)CC2CC2)[C@H](C)CN([C@H](C)CO)C(=O)c2cc(NC(=O)Nc3ccc4c(c3)OCO4)ccc2O1`: the relative growth is inactive: 0.992.
The same measure for `C[C@@H]1CN([C@H](C)CO)C(=O)c2cccc(NC(=O)c3ccc(-c4nccs4)cc3)c2O[C@@H]1CN(C)Cc1ccc2c(c1)OCO2`: inactive: 1.03.
The same measure for `CC(C)NC(=O)Nc1ccc2c(c1)C(=O)N([C@H](C)CO)C[C@H](C)[C@@H](CN(C)Cc1ccc3c(c1)OCO3)O2`: inactive: 1.03.
The same measure for `C[C@H](CO)N1C[C@H](C)[C@H](CN(C)Cc2ccc3c(c2)OCO3)Oc2ncc(C#CCN(C)C)cc2C1=O`: inactive: 1.02; for `Cc1cccc(C)c1NC(=O)C1CCCCN1C.Cl` (centres undefined): inactive: 1.18.

Values taken from the supplement of paper PMC9446081.
